According to the supplement of paper PMC8728848:
This is one part of the list.

Key:
Experiment in all cases: glycan array binding signal (z-score within array); higher = stronger binding
Details in all cases: glycan notation: IUPAC condensed, linker removed
Fuc(a1-2)Gal = molecular target: Fuc(a1-2)Gal
In short: (§1)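 The binding signal is a Z-score computed within each array and averaged over linkers. Arrays of the same protein sequence at different concentrations or buffers were also averaged together. Data originate from 3228 arrays in the Consortium for Functional Glycomics database, kept only where the protein sequence was available.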

Fuc(a1-2)Gal(b1-3)GalNAc = molecular target: Fuc(a1-2)Gal(b1-3)GalNAc
In short: as §1

[1] = molecular target: Fuc(a1-2)Gal(b1-3)GalNAc(b1-3)Gal
In short: as §1

[2] = molecular target: Fuc(a1-2)Gal(b1-3)GalNAc(b1-3)Gal(a1-4)Gal(b1-4)Glc
In short: as §1

[3] = molecular target: Fuc(a1-2)Gal(b1-3)GalNAc(b1-4)[Neu5Ac(a2-3)]Gal(b1-4)Glc
In short: as §1

Fuc(a1-2)Gal(b1-3)GlcNAc = molecular target: Fuc(a1-2)Gal(b1-3)GlcNAc
In short: as §1

[4] = molecular target: Fuc(a1-2)Gal(b1-3)GlcNAc(b1-3)Gal(b1-4)Glc
In short: as §1

[5] = molecular target: Fuc(a1-2)Gal(b1-3)[Fuc(a1-4)]GlcNAc
In short: as §1

Fuc(a1-2)Gal(b1-4)Glc = molecular target: Fuc(a1-2)Gal(b1-4)Glc
In short: as §1

Fuc(a1-2)Gal(b1-4)Glc6S = molecular target: Fuc(a1-2)Gal(b1-4)Glc6S
In short: as §1

Fuc(a1-2)Gal(b1-4)GlcNAc = molecular target: Fuc(a1-2)Gal(b1-4)GlcNAc
In short: as §1

[6] = molecular target: Fuc(a1-2)Gal(b1-4)GlcNAc(b1-3)Gal(b1-4)GlcNAc
In short: as §1

[7] = molecular target: Fuc(a1-2)Gal(b1-4)GlcNAc(b1-3)Gal(b1-4)GlcNAc(b1-3)Gal(b1-4)GlcNAc
In short: as §1

[8] = molecular target: Fuc(a1-2)Gal(b1-4)GlcNAc6S
In short: as §1

[9] = molecular target: Fuc(a1-2)Gal(b1-4)[Fuc(a1-3)]GlcNAc
In short: as §1

[10] = molecular target: Fuc(a1-2)Gal(b1-4)[Fuc(a1-3)]GlcNAc(b1-3)Gal(b1-4)[Fuc(a1-3)]GlcNAc
In short: as §1

[11] = molecular target: Fuc(a1-2)Gal(b1-4)[Fuc(a1-3)]GlcNAc(b1-3)Gal(b1-4)[Fuc(a1-3)]GlcNAc(b1-3)Gal(b1-4)[Fuc(a1-3)]GlcNAc
In short: as §1

Fuc(a1-2)Gal6S(b1-4)Glc = molecular target: Fuc(a1-2)Gal6S(b1-4)Glc
In short: as §1

[12] = molecular target: Fuc(a1-2)Gal6S(b1-4)Glc6S
In short: as §1

[13] = molecular target: Fuc(a1-2)Gal6S(b1-4)GlcNAc
In short: as §1

Fuc(a1-2)[Gal(a1-3)]Gal = molecular target: Fuc(a1-2)[Gal(a1-3)]Gal
In short: as §1

[14] = molecular target: Fuc(a1-2)[Gal(a1-3)]Gal(b1-3)GlcNAc
In short: as §1

[15] = molecular target: Fuc(a1-2)[Gal(a1-3)]Gal(b1-4)Glc
In short: as §1

[16] = molecular target: Fuc(a1-2)[Gal(a1-3)]Gal(b1-4)GlcNAc
In short: as §1

[17] = molecular target: Fuc(a1-2)[Gal(a1-3)]Gal(b1-4)[Fuc(a1-3)]GlcNAc
In short: as §1

[18] = molecular target: Fuc(a1-2)[Gal(a1-4)]Gal(b1-4)GlcNAc
In short: as §1

[19] = molecular target: Fuc(a1-2)[GalNAc(a1-3)]Gal
In short: as §1

[20] = molecular target: Fuc(a1-2)[GalNAc(a1-3)]Gal(b1-3)GlcNAc
In short: as §1

[21] = molecular target: Fuc(a1-2)[GalNAc(a1-3)]Gal(b1-4)Glc
In short: as §1

[22] = molecular target: Fuc(a1-2)[GalNAc(a1-3)]Gal(b1-4)GlcNAc
In short: as §1

[23] = molecular target: Fuc(a1-2)[GalNAc(a1-3)]Gal(b1-4)[Fuc(a1-3)]GlcNAc
In short: as §1

[24] = molecular target: Fuc(a1-2)[GalNAc(a1-4)]Gal(b1-4)GlcNAc
In short: as §1

[25] = molecular target: Fuc(a1-2)[GalNAc(b1-3)]Gal
In short: as §1

Fuc(a1-3)GlcNAc = molecular target: Fuc(a1-3)GlcNAc
In short: as §1

[26] = molecular target: Fuc(a1-3)[Gal(b1-4)]Glc6S
In short: as §1

[27] = molecular target: Fuc(a1-3)[Gal(b1-4)]GlcNAc
In short: as §1

[28] = molecular target: Fuc(a1-3)[Gal(b1-4)]GlcNAc(b1-2)Man(a1-3)[Fuc(a1-3)[Gal(b1-4)]GlcNAc(b1-2)Man(a1-6)]Man(b1-4)GlcNAc(b1-4)GlcNAc
In short: as §1

[29] = molecular target: Fuc(a1-3)[Gal(b1-4)]GlcNAc(b1-2)Man(a1-6)[Gal(b1-4)GlcNAc(b1-2)Man(a1-3)]Man(b1-4)GlcNAc(b1-4)GlcNAc
In short: as §1

[30] = molecular target: Fuc(a1-3)[Gal(b1-4)]GlcNAc(b1-3)Gal(b1-3)[Fuc(a1-4)]GlcNAc
In short: as §1

[31] = molecular target: Fuc(a1-3)[Gal(b1-4)]GlcNAc(b1-4)Gal(b1-4)[Fuc(a1-3)]GlcNAc
In short: as §1

[32] = molecular target: Fuc(a1-3)[Gal(b1-4)]GlcNAc(b1-4)Gal(b1-4)[Fuc(a1-3)]GlcNAc(b1-4)Gal(b1-4)[Fuc(a1-3)]GlcNAc
In short: as §1

[33] = molecular target: Fuc(a1-3)[Gal(b1-4)]GlcNAc6S
In short: as §1

[34] = molecular target: Fuc(a1-3)[Gal3S(b1-4)]Glc6S
In short: as §1

[35] = molecular target: Fuc(a1-3)[Gal3S(b1-4)]GlcNAc
In short: as §1

[36] = molecular target: Fuc(a1-3)[Gal3S(b1-4)]GlcNAc6S
In short: as §1

[37] = molecular target: Fuc(a1-3)[GalNAc(b1-4)]GlcNAc
In short: as §1

Fuc(a1-4)GlcNAc = molecular target: Fuc(a1-4)GlcNAc
In short: as §1

Fuc(b1-3)GlcNAc = molecular target: Fuc(b1-3)GlcNAc
In short: as §1

Gal(a1-2)Gal = molecular target: Gal(a1-2)Gal
In short: as §1

Gal(a1-3)Gal = molecular target: Gal(a1-3)Gal
In short: as §1

Gal(a1-3)Gal(b1-3)GlcNAc = molecular target: Gal(a1-3)Gal(b1-3)GlcNAc
In short: as §1

Gal(a1-3)Gal(b1-4)Glc = molecular target: Gal(a1-3)Gal(b1-4)Glc
In short: as §1

Gal(a1-3)Gal(b1-4)GlcNAc = molecular target: Gal(a1-3)Gal(b1-4)GlcNAc
In short: as §1

[38] = molecular target: Gal(a1-3)Gal(b1-4)[Fuc(a1-3)]GlcNAc
In short: as §1

Gal(a1-3)GalNAc = molecular target: Gal(a1-3)GalNAc
In short: as §1

[39] = molecular target: Gal(a1-3)[Gal(a1-4)]Gal(b1-4)GlcNAc
In short: as §1

Gal(a1-4)Gal(b1-4)Glc = molecular target: Gal(a1-4)Gal(b1-4)Glc
In short: as §1

Gal(a1-4)Gal(b1-4)GlcNAc = molecular target: Gal(a1-4)Gal(b1-4)GlcNAc
In short: as §1

Gal(a1-4)GlcNAc = molecular target: Gal(a1-4)GlcNAc
In short: as §1

Gal(a1-6)Glc = molecular target: Gal(a1-6)Glc
In short: as §1

B1: GH95CBM (Clostridium perfringens) (protein)
chain: EKVAVETSVYLSELEWKSASTGYGEIQKDASCDGNTITLKGENGEKVSYDKGIGTHAHSEIVYSLEGLDYYDYFETFVGVDQEMAGTVASISFEVYLDNEKVFDSGLMTGDTTQKHVKVPIAGKNTLKLVVKDGGDSIGSDHGSFGDAKLT
Which results are given for B1?
glycan array binding signal (z-score) (Fuc(a1-2)Gal): -0.335; glycan array binding signal (z-score) (Fuc(a1-2)Gal(b1-3)GalNAc): 0.102; glycan array binding signal (z-score) [1]: -0.264; glycan array binding signal (z-score) [2]: 0.083; glycan array binding signal (z-score) [3]: -0.108; glycan array binding signal (z-score) (Fuc(a1-2)Gal(b1-3)GlcNAc): 3.17; glycan array binding signal (z-score) [4]: -0.338; glycan array binding signal (z-score) [5]: 0.161; glycan array binding signal (z-score) (Fuc(a1-2)Gal(b1-4)Glc): -0.353; glycan array binding signal (z-score) (Fuc(a1-2)Gal(b1-4)Glc6S): -0.329; glycan array binding signal (z-score) (Fuc(a1-2)Gal(b1-4)GlcNAc): -0.313; glycan array binding signal (z-score) [6]: -0.285; glycan array binding signal (z-score) [7]: -0.3; glycan array binding signal (z-score) [8]: -0.334; glycan array binding signal (z-score) [9]: -0.325; glycan array binding signal (z-score) [10]: -0.342; glycan array binding signal (z-score) [11]: -0.311; glycan array binding signal (z-score) (Fuc(a1-2)Gal6S(b1-4)Glc): -0.323; glycan array binding signal (z-score) [12]: -0.298; glycan array binding signal (z-score) [13]: -0.296; glycan array binding signal (z-score) (Fuc(a1-2)[Gal(a1-3)]Gal): 1.22; glycan array binding signal (z-score) [14]: -0.321; glycan array binding signal (z-score) [15]: -0.347; glycan array binding signal (z-score) [16]: -0.303; glycan array binding signal (z-score) [17]: -0.33; glycan array binding signal (z-score) [18]: -0.311; glycan array binding signal (z-score) [19]: -0.291; glycan array binding signal (z-score) [20]: -0.344; glycan array binding signal (z-score) [21]: -0.219; glycan array binding signal (z-score) [22]: -0.284; glycan array binding signal (z-score) [23]: -0.285; glycan array binding signal (z-score) [24]: -0.158; glycan array binding signal (z-score) [25]: -0.089; glycan array binding signal (z-score) (Fuc(a1-3)GlcNAc): 0.521; glycan array binding signal (z-score) [26]: -0.278; glycan array binding signal (z-score) [27]: -0.32; glycan array binding signal (z-score) [28]: -0.268; glycan array binding signal (z-score) [29]: -0.317; glycan array binding signal (z-score) [30]: -0.299; glycan array binding signal (z-score) [31]: -0.262; glycan array binding signal (z-score) [32]: -0.323; glycan array binding signal (z-score) [33]: -0.332; glycan array binding signal (z-score) [34]: 0.313; glycan array binding signal (z-score) [35]: -0.285; glycan array binding signal (z-score) [36]: -0.178; glycan array binding signal (z-score) [37]: 0.496; glycan array binding signal (z-score) (Fuc(a1-4)GlcNAc): -0.353; glycan array binding signal (z-score) (Fuc(b1-3)GlcNAc): -0.367; glycan array binding signal (z-score) (Gal(a1-2)Gal): -0.294; glycan array binding signal (z-score) (Gal(a1-3)Gal): -0.232; glycan array binding signal (z-score) (Gal(a1-3)Gal(b1-3)GlcNAc): -0.324; glycan array binding signal (z-score) (Gal(a1-3)Gal(b1-4)Glc): -0.251; glycan array binding signal (z-score) (Gal(a1-3)Gal(b1-4)GlcNAc): -0.375; glycan array binding signal (z-score) [38]: 4.88; glycan array binding signal (z-score) (Gal(a1-3)GalNAc): 1.84; glycan array binding signal (z-score) [39]: -0.183; glycan array binding signal (z-score) (Gal(a1-4)Gal(b1-4)Glc): -0.347; glycan array binding signal (z-score) (Gal(a1-4)Gal(b1-4)GlcNAc): -0.341; glycan array binding signal (z-score) (Gal(a1-4)GlcNAc): -0.285; glycan array binding signal (z-score) (Gal(a1-6)Glc): -0.357
